# Laboratory results from paper PMC4336329 (PLoS ONE, 2015).
# About 2,200 (0.71%) of roughly 310,000 compounds showed an effect of 50% or more. Effects have a minus sign here. The list shows a part of the results.
# Molecular target: human ether-à-go-go-related gene (hERG) potassium channel (human, UniProt Q12809)
# Assay: primary screen, population patch clamp on CHO cells stably expressing hERG
# Chain of human ether-à-go-go-related gene (hERG) potassium channel (Q12809 whole entry, looked up): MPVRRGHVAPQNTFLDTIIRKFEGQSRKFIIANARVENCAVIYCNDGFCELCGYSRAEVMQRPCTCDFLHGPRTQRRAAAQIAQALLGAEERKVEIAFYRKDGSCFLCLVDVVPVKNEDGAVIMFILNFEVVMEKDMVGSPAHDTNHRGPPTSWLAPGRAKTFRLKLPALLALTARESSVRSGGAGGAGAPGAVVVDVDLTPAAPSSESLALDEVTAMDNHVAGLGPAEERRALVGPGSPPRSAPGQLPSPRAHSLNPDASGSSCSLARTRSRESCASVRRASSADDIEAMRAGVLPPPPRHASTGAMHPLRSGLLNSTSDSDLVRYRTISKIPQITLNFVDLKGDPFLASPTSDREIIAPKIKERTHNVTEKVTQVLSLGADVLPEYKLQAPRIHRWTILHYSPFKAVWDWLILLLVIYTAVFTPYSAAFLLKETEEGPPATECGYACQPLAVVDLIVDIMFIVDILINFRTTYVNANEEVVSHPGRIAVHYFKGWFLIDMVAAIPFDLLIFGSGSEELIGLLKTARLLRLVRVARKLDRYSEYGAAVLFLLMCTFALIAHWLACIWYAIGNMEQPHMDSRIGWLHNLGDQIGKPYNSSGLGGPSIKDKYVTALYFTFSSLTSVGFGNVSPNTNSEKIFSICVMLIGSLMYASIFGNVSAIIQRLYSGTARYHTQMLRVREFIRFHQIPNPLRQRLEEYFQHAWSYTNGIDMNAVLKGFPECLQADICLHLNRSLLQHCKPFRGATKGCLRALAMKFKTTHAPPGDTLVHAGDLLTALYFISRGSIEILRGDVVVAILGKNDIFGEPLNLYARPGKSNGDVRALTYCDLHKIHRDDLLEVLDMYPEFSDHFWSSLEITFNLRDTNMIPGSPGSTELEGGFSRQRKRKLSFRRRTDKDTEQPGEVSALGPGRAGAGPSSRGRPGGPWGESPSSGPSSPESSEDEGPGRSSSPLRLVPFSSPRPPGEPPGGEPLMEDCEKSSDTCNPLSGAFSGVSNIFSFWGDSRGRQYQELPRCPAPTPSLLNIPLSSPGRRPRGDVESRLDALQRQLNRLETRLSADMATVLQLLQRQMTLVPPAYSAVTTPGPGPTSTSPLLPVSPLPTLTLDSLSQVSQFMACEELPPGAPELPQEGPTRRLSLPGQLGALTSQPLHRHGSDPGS
row,SMILES,"hERG current change (%, negative = inhibition) at 1uM [%]"
1,CCNC(=O)c1c(NC(C)=O)sc2c1CCCC2,2.6
2,CCCN1C(=O)/C(=C/c2c(N3CCNC(=O)C3CC(=O)OCC)nc3c(C)cccn3c2=O)SC1=S (centres unmarked),11
3,CCC(=O)c1ccc(OCC(=O)N2CCCC2)c(OC)c1,6.29
4,COc1cc(/C=N/NC(=O)c2cccnc2)ccc1OCC(=O)Nc1ccccc1Cl,9.01
5,Cc1cc(=O)oc2cc(NC(=O)c3cccc(S(C)(=O)=O)c3)ccc12,12.8
6,NS(=O)(=O)c1ccc(CCNc2nc3c(-c4cccc(F)c4)nnn3c3ccccc23)cc1,17.3
7,O=C(/C=C/c1cccs1)N1CCCCC1,15.7
8,C=CCn1c(SCC#N)nc2c(c1=O)C(C)(C)Cc1ccccc1-2,9.15
9,COc1cc(C(=O)N2CCN(C/C=C/c3ccccc3)CC2)cc(OC)c1OC,-2.2
10,O=S(=O)(NCc1cccnc1)c1cccc2nsnc12,-2.07
11,O=C(Nc1nc(-c2ccc3c(c2)OCO3)cs1)c1ccncc1,-0.919
12,CCCC(=O)Nc1c(-c2ccccc2)c(=O)c(C)nn1-c1ccccc1,8.77
13,C=CC1C(N2CCOCC2)C(C)(C)S1(=O)=O (centres unmarked),-1.66
14,CCCCc1cc(=O)oc2cc(OCc3nn[nH]n3)ccc12,9.8
15,Cc1ccc[n+](-c2[nH]c(=O)sc2/C=N/N=C(\[O-])CCn2c3ccccc3c3ccccc32)c1,12.8
16,O=C(NCc1ccco1)C1CCN(C(=O)c2cc3sccc3n2Cc2ccc(Cl)cc2)CC1,-23.8
17,O=C(CCc1nc2ccccc2c(=O)[nH]1)N1CCN(S(=O)(=O)c2ccccc2Br)CC1,-18.1
18,CC(C)OP(=O)(OC(C)C)C(NCc1ccccc1)c1ccccc1.Cl (centres unmarked),-2.96
19,O=c1c2ccccc2nc(SCc2ccc([N+](=O)[O-])cc2)n1-c1ccccc1,8.57
20,COc1ccc(Cc2nnc3n2N=C(c2cc4ccccc4o2)CS3)cc1OC,-8.27
21,CCN(CC(=O)NCc1ccncc1)S(=O)(=O)c1cc(Cl)ccc1Cl,1.73
22,Cc1cc(C)c(N=C2SCC(=O)N2Cc2ccco2)c(C)c1,5.9

row,SMILES,"hERG current change (%, negative = inhibition) at 1uM [%]"
1,COc1ccc(N(CC(=O)Nc2cccc3ccccc23)S(C)(=O)=O)c(OC)c1,8.31
2,COC(=O)c1ccc(Cn2cc(C(F)(F)F)cc([N+](=O)[O-])c2=O)cc1,11.2
3,c1ccc(-c2csc(-n3cnnn3)n2)cc1,-2.18
4,CCOc1ccc(/C=N/NC(=O)c2cc3ccccc3cc2OC)cc1,5.44
5,Cc1cc(C)n(C(C)CNS(=O)(=O)c2ccc(Cl)cc2)n1 (centres unmarked),10.9
6,O=C(Nc1c(-c2ccc(F)cc2)nc2ccccn12)c1ccc(F)cc1,-4.64
7,CCC(=O)Nc1nc(C)c(C(=O)NC2CCCCC2)s1,8.31
8,CCC(NC(=O)c1ccncc1)c1ccccc1 (centres unmarked),7.44
9,COc1cc(/C=C(\NC(=O)c2ccccc2)C(=O)NC(C(=O)O)c2ccccc2)cc(OC)c1OC (centres unmarked),6.11
10,COc1cc(OC)c(OC)cc1CNCCSc1nnnn1C.Cl,7.84
11,C[n+]1cc(-c2ccccc2)n2c1CCCCC2.[I-],4.28
12,O=C(O/N=C1/CCCc2occc21)c1ccc(Cl)cc1Cl,8.54
13,COc1ccc(/C=N/NC(=O)c2ccc(NC(=O)c3ccccc3Br)cc2)cc1,21.5
14,CC(CC(=O)NC1CCCCC1)S(=O)(=O)c1ccc2c(c1)NC(=O)CO2 (centres unmarked),12.7
15,CCOc1cccc(OCCNC2CCCC2)c1.O=C(O)C(=O)O,11.2
16,CCN(CC)CCCNC(=S)N(CCCO)Cc1cc2cc3c(cc2[nH]c1=O)OCO3,16.4
17,O=C(COC(=O)/C=C/c1ccc([N+](=O)[O-])cc1)NCc1ccc2c(c1)OCO2,17
18,CCCC(=O)Nc1ccccc1Sc1ncnc2scc(-c3ccccc3)c12,9.6
19,Cc1cc(=O)[nH]c(SCc2ccccc2)n1,16.9
20,COc1ccc(-c2cc(=O)oc3c(O)c(O)ccc23)cc1,7.35
21,C/C=C/C(=O)OCC(=O)Nc1cc([N+](=O)[O-])ccc1Cl,0.866
22,O=C(COc1ccccc1)Nc1ccncc1,6.32

row,SMILES,"hERG current change (%, negative = inhibition) at 1uM [%]"
1,C[n+]1ccccc1/C=C/c1ccccc1Cl.[I-],16.5
2,CCOC(=O)C1=C(N)N(c2ccc(C)cc2)C2=C(C(=O)CCC2)C1c1cccs1 (centres unmarked),4.51
3,O=[N+]([O-])c1ccc(/C=[N+](\[O-])[C@@H]2CCCC[C@@H]2/[N+]([O-])=C/c2ccc([N+](=O)[O-])o2)o1,-3.05
4,CCOC(=O)c1c(C)nsc1NC(=O)C1CCCCC1,13.4
5,CCC1CCCCN1C(=O)c1noc(C(C)C)c1[N+](=O)[O-] (centres unmarked),11.3
6,Cc1ccccc1CS(=O)(=O)Cc1ccc(C(=O)NCCc2ccccc2)o1,16.6
7,CCc1ccc(N(C(=O)c2csnn2)C(C(=O)NC2CCCC2)c2cccnc2)cc1 (centres unmarked),0.538
8,COC(=O)C1=C(CN2CCN(C)CC2)NC(=O)NC1c1cc(C)ccc1C (centres unmarked),-4.52
9,COc1ccccc1C(=O)Nn1cnc2ccccc2c1=O,18.3
10,COc1ccccc1CCNC(=O)CNC(=O)c1ccc2ccccc2c1,8.57
11,CCC(C)NC(=S)N1CCN(Cc2ccc3c(c2)OCO3)CC1.O=C(O)C(=O)O (centres unmarked),-1.01
12,CCc1ccccc1N(CC(=O)N1CCCC1)S(C)(=O)=O,14.8
13,C/C=C(\C)C(=O)NCCN1C2=NC[C@H](C)N2C[C@@H]1Cc1ccc(OC)cc1,7.75
14,CCN(CC)CCNC(=O)C(=O)Nc1cc2c3c(c1)CCC(=O)N3CCC2,22.5
15,CC(=O)[C@@H]1[C@@H]2C(=O)N(c3ccccc3F)C(=O)[C@@H]2[C@H]2c3ccccc3C=NN12,2.45
16,CC(C)OCCCNC(=O)CN1C(=O)CC(C)(C)S(=O)(=O)c2ccccc21,11.7
17,O=C(c1nc2ccc(Cl)cn2c1CN1CCCC(CO)C1)N1CCc2ccccc2C1 (centres unmarked),-3.34
18,CCOC(=O)c1c(C)[nH]c(C(=O)CN(C)CC(=O)Nc2ccccc2Cl)c1C,8.34
19,Cc1nn(CC(=O)N2CCN(c3ccccc3)CC2)c(C)c1[N+](=O)[O-],8.06
20,CC(=O)C1=C(O)C(=O)N(CCN2CCOCC2)C1c1ccccc1 (centres unmarked),9.49
21,CCc1cc2c(=O)c(-c3cnn(-c4ccccc4)c3)c(C)oc2c(CN2CCCCC2)c1O,1.37
22,COc1ccc([C@@H]2C[C@@H](c3ccccc3)Oc3c(C)ccc(C(C)C)c32)cc1,13.7

row,SMILES,"hERG current change (%, negative = inhibition) at 1uM [%]"
1,O=C(COC(=O)COc1ccccc1)NCc1ccccc1,10.8
2,Cc1cc(C)c2c(-n3cccc3)c(C(=O)NNS(=O)(=O)c3ccc(F)cc3)sc2n1,-1.19
3,O=C(Cc1ccccc1)Nc1ccc(S(=O)(=O)N2CCOCC2)cc1,8.76
4,COc1ccc(/C=C2\SC(=S)N(CC(=O)N3CCN(C)CC3)C2=O)cc1,14.2
5,CC(=O)c1ccc(S(=O)(=O)N2CCn3cccc3C2C)cc1 (centres unmarked),22.9
6,CCOc1ccc(C(=O)NCc2ccc3c(c2)OCO3)cc1OCC,14.6
7,Cc1ccc(NC(=O)NNC(=O)c2ccc3c(c2)NC(=O)C(C)(C)O3)cc1,8.21
8,O=C(NCCc1nc2ccccc2[nH]1)/C(=C/c1ccco1)NC(=O)c1ccco1,13
9,NC(=O)CSc1nnc(COc2ccccc2)n1CCc1ccccc1,-9.5
10,CCCSc1nc2cc(C)c(C)cc2n1CC(C)O (centres unmarked),10.7
11,O=C(Cn1cc(SCc2cccc(Cl)c2)c2ccccc21)N1CCOCC1,-3.16
12,CC(C)c1ccc(C(=O)NC(=S)Nc2ccc3[nH]c(=O)[nH]c3c2)cc1,0.524
13,CCNC(=O)n1cc(-n2cncn2)c(-c2ccc(Cl)cc2)n1,-11.8
14,COc1ccc(CCNC(=O)C2CC3Cn4c(nc5cc6ccccc6cc54)C3N2C)cc1 (centres unmarked),2.44
15,O=C(CSc1nnc(CNC(=O)c2cccc(C(F)(F)F)c2)o1)NC1CCCCC1,9.71
16,CCn1c(CSCc2ccc(F)cc2)nnc1SCC(=O)NCc1ccccc1,-4.37
17,CCOC(=O)c1c(C)[nH]c(C(=O)COC(=O)c2oc3ccc(OC)cc3c2C)c1C,19.3
18,CCN(CC)c1ccc(NC(=O)c2cnc3ccccn3c2=O)c(C)c1,5.71
19,CCOc1ccc(-n2c(SC(C)C(=O)OC)nc3c(c2=O)SCC3)cc1 (centres unmarked),7.36
20,COC(=O)/C=c1/s/c(=C(/C#N)C(=O)N2CCOCC2)n(-c2ccccc2)c1=O,20.9
